{
  "source": "PubChem BioAssay AID296",
  "about": "(DTP/NCI, 2004)",
  "tested_on": "MX-1 breast xenograft, nude mice, tumor weight T/C",
  "test": "NCI In Vivo Anticancer Drug Screen. Data for tumor model Human Mammary Carcinoma MX-1 Xenograft (intrarenal inoculation) in NU/NU Swiss (nude) mice",
  "conditions": "endpoint: mean tumor weight change, schedule: Q04DX003 (sc), higher = larger tumour",
  "protocol": "The antitumor activity of compounds was measured in mice bearing transplantable tumors. Survival or tumor size were measured and the results are expressed as the measurement made in the treated group (T) divided by the measurement made in the vehicle treated control group (C). The tumor model used in this assay is Human Mammary Carcinoma MX-1 Xenograft (intrarenal inoculation) in NU/NU Swiss (nude) mice",
  "note": "Inconclusive results are not listed. Some entries of the source have several records that differ or are many. The list is limited to them. An entry can have further records. The records of an entry differ for a reason that is not stated; some may be repeats, others may stem from another dose, organism or construct than stated.",
  "data": [
    {"smiles": "CC(C)(C)N1CC1CNC(=O)C(=O)NCC1CN1C(C)(C)C", "note": "(stereo not drawn)", "values": [
      {"measurement": "T/C", "setting": "dose: 6.25 mg/kg/injection, vehicle: saline with Tween-80", "result": "12 % of control, 38 % of control, 48 % of control"},
      {"measurement": "T/C", "setting": "dose: 12.5 mg/kg/injection, vehicle: saline with Tween-80", "result": "4 % of control, 13 % of control, 42 % of control"},
      {"measurement": "T/C", "setting": "dose: 25.0 mg/kg/injection, vehicle: saline with Tween-80", "result": "-92 % of control, -63 % of control, -15 % of control"}
    ]},
    {"smiles": "CCC1CC2CN(CCc3c([nH]c4ccccc34)C(C(=O)OC)(c3cc4c(cc3OC)N(C)C3C(O)(C(=O)OC)C(OC(C)=O)C5(CC)C=CCN6CCC43C65)C2)C1", "note": "(stereo not drawn)", "values": [
      {"measurement": "T/C", "setting": "dose: 4.0 mg/kg/injection, vehicle: water", "result": "3 % of control and 29 % of control"}
    ]},
    {"smiles": "NC(=O)c1[nH]nc(C2OC(CO)C(O)C2O)c1O", "note": "(stereo not drawn)", "values": [
      {"measurement": "T/C", "setting": "dose: 5.0 mg/kg/injection, vehicle: saline", "result": "18 % of control and 99 % of control"},
      {"measurement": "T/C", "setting": "dose: 10.0 mg/kg/injection, vehicle: saline", "result": "30 % of control and 66 % of control"}
    ]},
    {"smiles": "CCCCCCCCCCCCCCCCCC(=O)Nc1ccn(C2OC(CO)C(O)C2O)c(=O)n1", "note": "(stereo not drawn)", "values": [
      {"measurement": "T/C", "setting": "dose: 150.0 mg/kg/injection, vehicle: saline with Tween-80", "result": "29 % of control, 42 % of control, 83 % of control"},
      {"measurement": "T/C", "setting": "dose: 300.0 mg/kg/injection, vehicle: saline with Tween-80", "result": "17 % of control, 33 % of control, 47 % of control"}
    ]}
  ]
}
